We go through 22 molecules from article PMC12136788.

Sequences and labels used below:
T1: UNK ZnF1-3 (human, UniProt Q9C0B0 31-174)
T1 sequence: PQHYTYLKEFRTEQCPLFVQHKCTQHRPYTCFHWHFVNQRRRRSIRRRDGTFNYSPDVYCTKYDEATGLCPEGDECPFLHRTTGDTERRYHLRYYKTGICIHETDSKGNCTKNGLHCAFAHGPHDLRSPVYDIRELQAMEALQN

B1: chr4:76721835:76721836:+_ENSG00000138768_ENST00000264904|hu_mus|hu_hu_hu_mus_True|48_88 (ssRNA)
RNA: GGGAGUUCUACAGUCCGACGAUCGUUUGGCUGGGGUUUCUGAGACGUCUGGAAUACUAACUCAUGUUUGCUAAUAAAUCCUAGUUUUCUAUGAAAUUUCUCUUUGCCAAUCCUCUUCUCUAUUAGUUGCUUUAGUUUCUCUUUCAACAGAGGAUUGAGCAUCA
B2: chr6:145182920:145182921:-_ENSMUSG00000030265_ENSMUST00000032399|mus_mus|motif|central (ssRNA)
RNA: GGGAGUUCUACAGUCCGACGAUCCUCCUCUUGACCUGCUGUGUCGAGAAUAUCCAAGAGACAGGUUUCUCCAUCAAUUACGGCUUGUUUCCUGUAGGAGUCCUCUAUCGUAGGGUCAUACUCAUCCACAAAGUGAUUCUGAAUCAACAGAGGAUUGAGCAUCA
B3: chr2:48026839:48026840:+_ENSG00000116062_ENST00000540021|hu_hu|hu_hu_hu_mus_False|1_58 (ssRNA)
RNA: GGGAGUUCUACAGUCCGACGAUCAUAGUGAGCCACUAGCGUCCUAAAUCUGGAACAGUGGCGGUCAUCCGAAAACUGACCUAUGAAAAACUUGCCCAGUGAAGUGUCCACAAAGCAAACACCAUACACACGAGUGUGGCCAGACAACAGAGGAUUGAGCAUCA
B4: chr11:86029109:86029110:-_ENSMUSG00000018068_ENSMUST00000018212|mus_mus|FALSE|FALSE (ssRNA)
RNA: GGGAGUUCUACAGUCCGACGAUCGUGAACAAGUUUAGCAAUGUUGGGAUCUGCAAUGUACAUUUGGUGUAACAGGCAACAGAUAAGGCACUGAACUUCCCGAAGGUUACAGAGCAAAUUGUCUUCUCCUUCUUCUGUUUCUUUCAACAGAGGAUUGAGCAUCA
B5: chr7:141438946:141438947:+_ENSG00000106028_ENST00000265304|hu_mus|hu_hu_hu_mus_True|8_8 (ssRNA)
RNA: GGGAGUUCUACAGUCCGACGAUCGACGAAAUACCUGUAACACAGGUCUUCGAAACAUGGCUUCUGUUUUUCUUACAACCUAAUCUUUAGGCUUUUCCUAAAGGAAAGAAAGAAAAGAGAAAAAUGAGCAGGGGAUCAACUACACAACAGAGGAUUGAGCAUCA
B6: chr14:76904430:76904431:+_ENSMUSG00000022010_ENSMUST00000022587|mus_mus|mus_mus_mus_hu_True|18_98 (ssRNA)
RNA: GGGAGUUCUACAGUCCGACGAUCUGCAGCCAAAAACAGAGAGAGGGAAAAAAAGAGGGAACACCAGCAGCCUUGUAUAAGCUAGAUAAAAUCUUCUGGCUUUCCGCAGCCCAGGGAGUGAGAACGGACGGCAGCCCUAAUUUACAACAGAGGAUUGAGCAUCA
B7: chr5:71505325:71505326:+_ENSG00000131711_ENST00000296755|hu_mus|FALSE|FALSE (ssRNA)
RNA: GGGAGUUCUACAGUCCGACGAUCGGAACUGAGUUUCUGUUGUUUGUUUGUUUGUUUUUCCUUUACAUCAAAUAUCCUUGAUAGAAGAGGGGAUAUUGCACACAAAUAUCAUAAAAGCACUACAUAUUACUUUCACUGGAAACUCAACAGAGGAUUGAGCAUCA
B8: chr18:56819859:56819860:+_ENSG00000166562_ENST00000588875|hu_mus|hu_hu_hu_mus_True|18_78 (ssRNA)
RNA: GGGAGUUCUACAGUCCGACGAUCAACCUUGAUUACUCUGUGAACUAUCGGAAUGUCUCGUCCUUCAACCUUAAAAACAACUAUUUCACCAGCUCUGAUGGGGUCCUCCCGGAAAUUUGUGAGGAACAGCAGAUCUCCUCUGUGCAACAGAGGAUUGAGCAUCA
B9: chr5:134143580:134143581:+_ENSG00000145833_ENST00000354283|hu_hu|FALSE|FALSE (ssRNA)
RNA: GGGAGUUCUACAGUCCGACGAUCUCCUGCUCUUCCAGUCCGCCCUGCUCUGUGUACAUAAUCCUCAUAAUGGUUGGGGCAGCUAUAAUUUACUACAAGAAUCAGAUGUUUCACAUCUAGACCUCGGGCAGCAACAGAGGUAGCCAACAGAGGAUUGAGCAUCA
B10: chrX:140365825:140365826:-_ENSMUSG00000031285_ENSMUST00000033642|mus_mus|FALSE|FALSE (ssRNA)
RNA: GGGAGUUCUACAGUCCGACGAUCAAGUCCAUUCAUCCGUGACCCUCUCAUAUUUCUAGAUGCUUUGUCUCGUUCGUCAAAAUGUCCAAAAUCAAGUUCCAUAUUUUGGUGGAACCACAGCAACCGGUUUUCUGCUGGUUGGGUCAACAGAGGAUUGAGCAUCA
B11: chr2:25130317:25130318:+_ENSMUSG00000026965_ENSMUST00000028341|mus_hu|FALSE|FALSE (ssRNA)
RNA: GGGAGUUCUACAGUCCGACGAUCGGAGUCUGGGAAGUCUCGGACGAUGCUGAAGAGCUCCUCGAUGCGCAGGCUGGCGUAGAUGCGGUAGAAGAACCUUUGCACGUGGCAGCGCCAGCGGCGCAGGGUGUUGCCGGCCUCGGGCAACAGAGGAUUGAGCAUCA
B12: chr7:54825262:54825263:-_ENSG00000132432_ENST00000352861|hu_hu|hu_hu_hu_mus_False|38_48 (ssRNA)
RNA: GGGAGUUCUACAGUCCGACGAUCCUGCCGGCUGGGCUCCACAAACUGCAUUACCUGAUCCAUGUUUGUUGGAUGGCGGAUUGAGAGUGCCAGGGACACGUAGCACUGAGAGAACCGAGCCCAACGGAACCGGAAGCUGGCAACCAACAGAGGAUUGAGCAUCA
B13: 63484750_63485141_14245_CDS_ENSMUSG00000030451_ENSMUST00000076226|mouse|control|control (ssRNA)
RNA: GGGAGUUCUACAGUCCGACGAUCAGAUUCCAUCACUUCCCAGAACCACUGGACCAAGGAUGCAGAAGGCUCAAUCCCUUUAUACGUUGCCACUGACUUUAAAAGAUGCAGUGGGAUAUCUGGGCUCCCACAGACCAUUGUCUCCAACAGAGGAUUGAGCAUCA
B14: 24911301_24911421_527_3pUTR_ENSMUSG00000006476_ENSMUST00000102931|mouse|control|control (ssRNA)
RNA: GGGAGUUCUACAGUCCGACGAUCGUGCCGUUCCCGCUGUCUCCUCCCUUUUACCACUGCUAGCUCAAUGGCUUCAGCUUCAGAGCCAGGUAGCAGGGCGGGCUCUCUAGAGAUGGUGUACACGUGGGGCUGGGGGCCCUCUAUCAACAGAGGAUUGAGCAUCA
B15: chr3:138219032:138219033:+_ENSMUSG00000028156_ENSMUST00000029803|mus_hu|motif|central (ssRNA)
RNA: GGGAGUUCUACAGUCCGACGAUCUGUUACAUGAGGAAAAAAACAAAAGCAAAACAAAUGAAAAACUGAAAUCAGAAUCACGGAUAUUAUCAAGUAGGGAAACAAAUAAAUUAAAAUCUAGCAGCCAUCAGCAAGAGUACAGCACAACAGAGGAUUGAGCAUCA
B16: chr2:232320318:232320319:-_ENSG00000115053_ENST00000322723|hu_hu|hu_hu_hu_mus_True|18_28 (ssRNA)
RNA: GGGAGUUCUACAGUCCGACGAUCACUAUUAAAGUCUACAAAACCAAACCCUUUGGAAGAACCAGUUUCCCGAUCAGUGACUAUUCUUGCACGAACAGAGCCCUCAAAUGACUCCUUUAAUGUCUCUUCAGUGGUAUCCUCAGACAACAGAGGAUUGAGCAUCA
B17: chr4:71802285:71802286:-_ENSMUSG00000008305_ENSMUST00000030095|mus_mus|FALSE|FALSE (ssRNA)
RNA: GGGAGUUCUACAGUCCGACGAUCUCCAGAGGAGGCUGUGGAUGCCGGGCUACCUGAAGCAUCUUUCUUCAGCAGACGGUUUUUGUCAAUUCCGUUUUCCCGGGGUGAGUGUGUGGGGCUUGCAUGUGGAGAAGAAGGGUCCUCCAACAGAGGAUUGAGCAUCA
B18: chr18:6437031:6437032:-_ENSMUSG00000024240_ENSMUST00000028100|mus_mus|motif|central (ssRNA)
RNA: GGGAGUUCUACAGUCCGACGAUCUGCAGUACUGUACAGAUAAUUGCUGUAUUCUUAAUUUACAGAUGUUGAUUUUUUCCGGUUAACAAUAAGAAAAGAAAGGUUGAAGCACGAGAGAUUCGAGAGCUGCGCAGUGCUGCCGAGCAACAGAGGAUUGAGCAUCA
B19: chr17:5392700:5392701:+_ENSG00000167842_ENST00000573759|hu_hu|FALSE|FALSE (ssRNA)
RNA: GGGAGUUCUACAGUCCGACGAUCGUUCUGUAGUUUUCUGGAGUUCUGAACCAGGGAUACUAAACUCUCCCUAAAAUCACUAGUCCCAUGAUCUCUGCCAACAUUAUGAAGCUCAUCAAAGAAAGUCAACGUCUGUUUGAGUUUCAACAGAGGAUUGAGCAUCA
B20: chr14:61442442:61442443:-_ENSG00000126814_ENST00000261249|hu_mus|FALSE|FALSE (ssRNA)
RNA: GGGAGUUCUACAGUCCGACGAUCUGUGGGGAGGAGCUCCGUGCUGCAAGGCUGCCCAUCCAAAAGUGAUCUGAAAACACUGAGAAACUCUAUGGCCUUAGCUGGCAAGUUCAUGACAAUGUGGACAGAGGGUUUAGCUUCAGCCAACAGAGGAUUGAGCAUCA
B21: chr17:87833181:87833182:-_ENSMUSG00000036438_ENSMUST00000040440|perfect_dup|FALSE|FALSE (ssRNA)
RNA: GGGAGUUCUACAGUCCGACGAUCAGGGCUUAGAUAUAUCCAGAGUAAGCCACAUGCAACAUGUUACUUGAUCAAUUUUCUAAAAUAAGGUUUUAGGACAAUGACAGUAAGAUAAGGGAAGAAAACAUGGAGGAAUGAAGUCCUCAACAGAGGAUUGAGCAUCA
B22: chrX:34632047:34632048:-_ENSMUSG00000036572_ENSMUST00000076265|mus_mus|FALSE|FALSE (ssRNA)
RNA: GGGAGUUCUACAGUCCGACGAUCGACUAUUUAAAUCUUUUCCAUCAGCCAUAAUUUGCUCUAUCCUCCGCUCUACUUGUGCUACAAUUACAUGCUCAUUGCUCCUACACUACAGAGUCAACAGUCAACACCAACAAUGCAAAACAACAGAGGAUUGAGCAUCA

The list shows a part of the results.

The target in this assay is T1, UNK ZnF1-3. As to the kind of experiment: nsRBNS (natural sequence RNA bind-n-seq); RBNS binding buffer (assumed for nsRBNS): 25 mM Tris pH 7.5, 150 mM KCl, 3 mM MgCl2, 0.01% Triton X-100, 500 ug/ml BSA, 20 U/ml SUPERase-In, 4 C; UNK is unkempt and MSI1 is Musashi-1; names of the RNAs are library labels; protein concentration not given here; high values mean tight binding.
For B1, the binding signal was found to be 0.407 enrichment R.

Molecule B2 showed a binding signal of 0.564 enrichment R.

Regarding B3, the binding signal was determined as 1.19 enrichment R.

B4 returned a binding signal of 0.964 enrichment R.

For the molecule B5, the binding signal is 0.556 enrichment R.

For the molecule B6, the binding signal came to 2.77 enrichment R.

B7 registered a binding signal of 1.01 enrichment R.

Turning to B8, the binding signal is 0.927 enrichment R.

Molecule B9 registered a binding signal of 2.12 enrichment R.

B10 showed a binding signal of 0.581 enrichment R.

For B11, the binding signal was found to be 0.414 enrichment R.

For the molecule B12, the binding signal turned out to be 1.16 enrichment R.

B13: the binding signal came to 1.05 enrichment R.

In the case of B14, the binding signal is 0.738 enrichment R.

B15: the binding signal was determined as 3.15 enrichment R.

Regarding B16, the binding signal was 0.81 enrichment R.

For B17, the binding signal was 1.24 enrichment R.

For the molecule B18, the binding signal amounted to 1.39 enrichment R.

As for B19, the binding signal stood at 1.02 enrichment R.

B20: the binding signal was 1.76 enrichment R.

B21 registered a binding signal of 1.76 enrichment R.

For B22, the binding signal turned out to be 1.37 enrichment R.
